What all share (assay): co-IP; HEK293 cells co-expressing myc-MOB1A variants and HA-tagged kinases; IP with anti-HA (12CA5), blot anti-myc; low-stringency buffer (30 mM HEPES pH 7.4, 20 mM KCl, 1% TX-100)
Assay [1] has as its target T1, full-length HA-MST2 wild-type (human) (UniProt Q13188).
T1 sequence: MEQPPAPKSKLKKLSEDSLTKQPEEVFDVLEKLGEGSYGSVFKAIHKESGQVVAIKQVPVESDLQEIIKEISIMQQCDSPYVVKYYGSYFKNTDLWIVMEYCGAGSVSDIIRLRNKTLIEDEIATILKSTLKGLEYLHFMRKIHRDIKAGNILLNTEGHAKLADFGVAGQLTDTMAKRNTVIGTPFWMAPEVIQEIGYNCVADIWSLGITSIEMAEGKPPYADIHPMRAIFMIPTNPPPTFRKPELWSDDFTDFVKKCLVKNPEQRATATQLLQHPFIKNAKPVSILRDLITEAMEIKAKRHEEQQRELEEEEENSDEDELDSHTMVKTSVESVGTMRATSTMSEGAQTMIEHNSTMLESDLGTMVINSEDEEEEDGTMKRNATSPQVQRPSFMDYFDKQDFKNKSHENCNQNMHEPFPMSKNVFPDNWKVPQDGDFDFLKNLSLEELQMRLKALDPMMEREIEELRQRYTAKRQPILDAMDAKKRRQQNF

The chains behind the UniProt entries cited, without tags or fusion partners.
UniProt Q9Y2H1: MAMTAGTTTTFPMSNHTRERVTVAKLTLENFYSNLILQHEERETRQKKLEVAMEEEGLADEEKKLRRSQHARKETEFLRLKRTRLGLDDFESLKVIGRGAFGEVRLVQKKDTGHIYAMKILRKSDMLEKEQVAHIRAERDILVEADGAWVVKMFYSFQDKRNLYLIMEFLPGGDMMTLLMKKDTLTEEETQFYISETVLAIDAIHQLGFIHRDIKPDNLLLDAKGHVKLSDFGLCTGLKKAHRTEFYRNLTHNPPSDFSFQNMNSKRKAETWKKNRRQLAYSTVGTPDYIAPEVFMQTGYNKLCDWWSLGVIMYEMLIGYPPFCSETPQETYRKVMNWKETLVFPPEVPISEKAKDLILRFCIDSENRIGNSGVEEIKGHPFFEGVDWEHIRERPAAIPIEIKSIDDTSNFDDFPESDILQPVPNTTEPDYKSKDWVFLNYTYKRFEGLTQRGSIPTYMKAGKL

The target in assay [2] is T2, HA-tagged full-length wild-type human LATS2 (human) (UniProt Q9NRM7).
T2 sequence: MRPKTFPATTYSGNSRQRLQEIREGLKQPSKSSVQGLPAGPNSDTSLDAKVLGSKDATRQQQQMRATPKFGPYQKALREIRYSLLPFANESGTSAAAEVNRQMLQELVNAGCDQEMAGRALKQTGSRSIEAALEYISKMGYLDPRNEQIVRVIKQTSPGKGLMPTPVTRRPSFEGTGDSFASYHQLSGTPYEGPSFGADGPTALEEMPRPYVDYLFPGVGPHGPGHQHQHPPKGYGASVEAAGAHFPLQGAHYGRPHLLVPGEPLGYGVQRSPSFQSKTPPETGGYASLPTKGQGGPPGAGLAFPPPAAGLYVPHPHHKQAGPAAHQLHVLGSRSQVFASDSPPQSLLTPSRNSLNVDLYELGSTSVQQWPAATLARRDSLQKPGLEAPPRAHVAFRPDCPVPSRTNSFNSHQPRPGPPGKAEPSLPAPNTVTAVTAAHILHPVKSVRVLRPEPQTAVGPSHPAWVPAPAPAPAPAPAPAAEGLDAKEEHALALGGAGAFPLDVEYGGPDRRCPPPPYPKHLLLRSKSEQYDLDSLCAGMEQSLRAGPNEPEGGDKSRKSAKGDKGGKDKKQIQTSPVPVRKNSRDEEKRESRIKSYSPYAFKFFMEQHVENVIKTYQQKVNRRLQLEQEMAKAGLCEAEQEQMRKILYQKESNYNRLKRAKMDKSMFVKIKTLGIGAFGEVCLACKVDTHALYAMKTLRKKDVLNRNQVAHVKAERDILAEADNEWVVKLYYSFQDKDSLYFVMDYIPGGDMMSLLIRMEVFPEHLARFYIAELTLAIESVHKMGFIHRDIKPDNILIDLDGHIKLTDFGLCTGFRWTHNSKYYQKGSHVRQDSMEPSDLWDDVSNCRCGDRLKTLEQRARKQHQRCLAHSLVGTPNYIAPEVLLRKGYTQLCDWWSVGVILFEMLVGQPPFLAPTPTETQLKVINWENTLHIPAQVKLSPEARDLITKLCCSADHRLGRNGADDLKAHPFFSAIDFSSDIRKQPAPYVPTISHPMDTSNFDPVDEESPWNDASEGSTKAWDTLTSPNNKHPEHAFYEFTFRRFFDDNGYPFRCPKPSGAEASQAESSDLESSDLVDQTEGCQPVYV

The target of assay [3] is HA-tagged wild-type human NDR2 (human) (UniProt Q9Y2H1).

Changes are numbered by the printed parent chain. Names may count otherwise. Results are given in words; binding and its absence hold for the method and conditions named. Binding seen in cells or lysates may run through a third protein. Some binding calls cover weakened binding; strength is not graded here. Sequences can lack the tags named with a protein.

B1: myc-tagged full-length human MOB1A wild-type (HEK293) (protein, UniProt Q9H8S9 1-216)
chain: MSFLFSSRSSKTFKPKKNIPEGSHQYELLKHAEATLGSGNLRQAVMLPEGEDLNEWIAVNTVDFFNQINMLYGTITEFCTEASCPVMSAGPRYEYHWADGTNIKKPIKCSAPKYIDYLMTWVQDQLDDETLFPSKIGVPFPKNFMSVAKTILKRLFRVYAHIYHQHFDSVMQLQEEAHLNTSFKHFIFFVQEFNLIDRRELAPLQELIEKLGSKDR
Turning to B1, the binding entry in assay [1], in assay [2] and in assay [3] was “binds” each time.

B2: myc-tagged full-length human MOB1A(K104E/K105E) (HEK293) (protein, UniProt Q9H8S9 1-216)
chain: B1 chain with K104E, K105E
Consider B2, for which the binding result in assay [1] is “no binding”; in assay [2], “binds”; in assay [3], “binds”.
